In PubChem BioAssay AID2202238 (Ras Initiative Chemistry Research Team, Frederick National …, 2025) one finds percent labeling data, which are given here for 23 compounds.

This test addresses GTPase KRas (Homo sapiens) (UniProt P01116). Put plainly: Covalent labelling of cysteine mutants by fragments, read by mass spectrometry (AID 2202238). The arrangement: protein at 5 µM with 500 µM competing thiol for 1.5 h. As to conditions: KRAS G12D cysteine mutants, disulfide tethering, MALDI-TOF labeling, stronger effect = higher value, fragment at 500 µM.
UniProt P01116, sequence (P01116 whole entry, looked up, the tested form may be a part): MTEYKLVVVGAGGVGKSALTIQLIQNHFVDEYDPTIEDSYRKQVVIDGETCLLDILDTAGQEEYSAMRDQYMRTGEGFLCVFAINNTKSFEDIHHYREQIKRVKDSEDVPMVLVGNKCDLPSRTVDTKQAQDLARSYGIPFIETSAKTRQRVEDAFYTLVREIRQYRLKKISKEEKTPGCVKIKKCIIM
Setting [1] is: measured here: G60C mutant labeling.
[2] abbreviates: measured here: G75C mutant labeling.
[3] abbreviates: measured here: H94C mutant labeling.
The mark [4] stands for this setting: measured here: I36C mutant labeling.
[5] abbreviates: measured here: L120C mutant labeling.
Setting [6] is: measured here: M67C mutant labeling.
Where [7] appears, read: measured here: M72C mutant labeling.
The mark [8] stands for this setting: measured here: N26C mutant labeling.
[9] abbreviates: measured here: N86C mutant labeling.
The mark [10] stands for this setting: measured here: P121C mutant labeling.
The mark [11] stands for this setting: measured here: S122C mutant labeling.
Where [12] appears, read: measured here: S136C mutant labeling.

Some of the results follow. These are further read-outs of the screen, such as a control signal, another cell line or another target. No call is given for them.

With `O=C(NCCS)c1cn2c(n1)CCCC2`, the percent labeling runs as follows: under setting [1], 31.8%; under setting [2], 24%; under setting [3], 35.9%; under setting [4], 27.8%; under setting [5], 44.7%; under setting [6], 32.7%. For the same compound, the percent labeling is, setting by setting: under setting [7], 29.2%; under setting [8], 37%; under setting [9], 26.8%; under setting [10], 28.9%; under setting [11], 32.7%; under setting [12], 47.8%.

On to `O=C(Cc1c(Cl)cccc1Cl)NCCS`, for which the percent labeling was 41.8% under setting [1]; 16.7% under setting [2]; 20.4% under setting [3]; 19.7% under setting [4]; 30.8% under setting [5]; 19.6% under setting [6]. The percent labeling by setting is: under setting [7], 40.5%; under setting [8], 28%; under setting [9], 13.4%; under setting [10], 18.3%; under setting [11], 16.2%; under setting [12], 26.6%.

On to `O=C(CCS)NCc1ccc2c(c1)C(=O)NC2`, for which the percent labeling by setting is: under setting [2], 12%; under setting [3], 24.4%; under setting [4], 40.7%; under setting [5], 28.7%; under setting [6], 31%; under setting [7], 22.3%. Moreover, the percent labeling reads like this: under setting [9], 31.9%; under setting [10], 28%; under setting [11], 27.6%; under setting [12], 51.6%.

As for `O=C(CCS)Nc1cccc(-c2ncc3n2CCCC3)c1`, the percent labeling by setting is: under setting [2], 8.4%; under setting [3], 20.5%; under setting [4], 25%; under setting [5], 20.6%; under setting [6], 34.7%; under setting [7], 44.4%. Moreover, the percent labeling is 18.5% under setting [9], 19.8% under setting [10], 17.9% under setting [11] and 47% under setting [12].

For `O=C(CCS)Nc1cccn(CCCn2ccnc2)c1=O`, the percent labeling reads like this: under setting [2], 16%; under setting [3], 34.2%; under setting [4], 41.2%; under setting [5], 36.2%; under setting [6], 36.5%; under setting [7], 30.6%. The percent labeling under setting [9] was 33.2%, the percent labeling under setting [10] was found to be 29.7%, the percent labeling under setting [11] turned out to be 30.5% and the percent labeling under setting [12] worked out at 47.3%.

For the compound `Cc1cc(NC(=O)C2CC2)sc1C(=O)NCCS`, the percent labeling is 26.2% under setting [1]; 16.7% under setting [2]; 21.5% under setting [3]; 14.4% under setting [4]; 28% under setting [5]; 22.1% under setting [6]. For the same compound, the percent labeling reads like this: under setting [7], 33%; under setting [8], 43.8%; under setting [9], 32.7%; under setting [10], 16.3%; under setting [11], 21.1%; under setting [12], 34.7%.

Take `O=C(CCc1ccc(-c2ccccc2)o1)NCCS`: the percent labeling stood at 20.4% under setting [1]; 7.2% under setting [2]; 16.5% under setting [3]; 6.6% under setting [4]; 20.7% under setting [5]; 13.9% under setting [6]. For the same compound, the percent labeling under setting [7] came to 5.1%; the percent labeling under setting [8] was 14.6%; the percent labeling under setting [9] is 7.5%; the percent labeling under setting [10] was 10.6%; the percent labeling under setting [11] came out at 9.2%; the percent labeling under setting [12] worked out at 10.5%.

For the compound `Cc1ccc(-c2nc(CC(=O)NCCS)cs2)cc1`, the percent labeling is 34.5% under setting [1]; 15.8% under setting [2]; 23.6% under setting [3]; 12.8% under setting [4]; 44.3% under setting [5]; 17.8% under setting [6]. This compound also had a percent labeling under setting [7] of 33.5%; a percent labeling under setting [8] of 30.9%; a percent labeling under setting [9] of 15.6%; a percent labeling under setting [10] of 18.3%; a percent labeling under setting [11] of 15.3%; a percent labeling under setting [12] of 22.5%.

In the case of `O=C(CCCn1ccc2cc(Cl)ccc21)NCCS`, the percent labeling runs as follows: under setting [1], 45.1%; under setting [2], 16%; under setting [3], 24.4%; under setting [4], 9.9%; under setting [5], 27.2%; under setting [6], 12.7%. The percent labeling runs as follows: under setting [7], 32.9%; under setting [8], 31.2%; under setting [9], 11.2%; under setting [10], 21.8%; under setting [11], 9.1%; under setting [12], 18%.

Consider `O=C(NCCS)c1cc(Cl)ccc1-n1cnnn1`, for which the percent labeling reads like this: under setting [1], 31.5%; under setting [2], 13.9%; under setting [3], 26.1%; under setting [4], 22.5%; under setting [5], 35.3%; under setting [6], 24.8%. The percent labeling stood at 24.2% under setting [7]; 36.8% under setting [8]; 26.3% under setting [9]; 31.9% under setting [10]; 25.3% under setting [11]; 35.2% under setting [12].

On to `CC1(C)Cc2cccc(NC(=O)CCS)c2O1`, for which the percent labeling was determined as 14.8% under setting [2]; 39.1% under setting [3]; 31.8% under setting [4]; 30.8% under setting [5]; 23.4% under setting [6]; 33.7% under setting [7]. The percent labeling came out at 21.3% under setting [9], 25% under setting [10], 28.6% under setting [11] and 45.7% under setting [12].

Compound `COC(=O)c1ccc(CN(C)C(=O)CCS)nc1` displayed a percent labeling under setting [2] of 14.1%; a percent labeling under setting [3] of 30.9%; a percent labeling under setting [4] of 37.3%; a percent labeling under setting [5] of 39.3%; a percent labeling under setting [6] of 39.3%; a percent labeling under setting [7] of 29.8%. Besides, the percent labeling worked out at 31.8% under setting [9], 41.9% under setting [10], 37.1% under setting [11] and 57.5% under setting [12].

Turning to `O=C(N[C@@H](Cc1cnc[nH]1)C(=O)NCCS)C1CCCCC1`, the percent labeling reads like this: under setting [1], 26.3%; under setting [2], 10.3%; under setting [3], 25.5%; under setting [4], 20.3%; under setting [5], 36%; under setting [6], 25.4%. Moreover, the percent labeling came out at 15.4% under setting [7]; 28.1% under setting [8]; 22.7% under setting [9]; 27% under setting [10]; 24.2% under setting [11]; 29.5% under setting [12].

Take `Cc1cc(C(=O)NCCS)cc(NCC(F)(F)F)n1`: the percent labeling is, setting by setting: under setting [1], 37.4%; under setting [2], 19.6%; under setting [3], 26.3%; under setting [4], 20.2%; under setting [5], 29.3%; under setting [6], 23.6%. Besides, the percent labeling is, setting by setting: under setting [7], 37.2%; under setting [8], 46.5%; under setting [9], 25.2%; under setting [10], 19.4%; under setting [11], 21.1%; under setting [12], 36.7%.

As for `CN1CCC(n2nccc2NC(=O)CCS)CC1`, the percent labeling came out at 12.6% under setting [2]; 33% under setting [3]; 52.5% under setting [4]; 16.9% under setting [5]; 42.5% under setting [6]; 19.9% under setting [7]. In addition, the percent labeling reads like this: under setting [9], 30.4%; under setting [10], 32.7%; under setting [11], 24.5%; under setting [12], 56.4%.

`O=C(NCCS)c1ccc2scc(Br)c2c1`: the percent labeling by setting is: under setting [1], 34%; under setting [2], 13.2%; under setting [3], 13.3%; under setting [4], 9.5%; under setting [5], 10.9%; under setting [6], 15.4%. In addition, the percent labeling reads like this: under setting [7], 30.2%; under setting [8], 32.1%; under setting [9], 10.1%; under setting [10], 12.6%; under setting [11], 6.3%; under setting [12], 19%.

As for `O=C(CCS)NC1(c2ccc(F)cc2)CCOCC1`, the percent labeling amounted to 12.8% under setting [2]; 40.5% under setting [3]; 42.4% under setting [4]; 40.8% under setting [5]; 38.9% under setting [6]; 29.6% under setting [7]. This compound also returned a percent labeling under setting [9] of 25.3%, a percent labeling under setting [10] of 38.1%, a percent labeling under setting [11] of 40.8% and a percent labeling under setting [12] of 52.5%.

For `O=C(CCS)N1CCC(N2CC(O)C2)CC1`, the percent labeling is, setting by setting: under setting [2], 19.4%; under setting [3], 28.8%; under setting [4], 39.7%; under setting [5], 35.3%; under setting [6], 36%; under setting [7], 17.5%. Also, the percent labeling by setting is: under setting [9], 22.8%; under setting [10], 28.3%; under setting [11], 34.4%; under setting [12], 47.6%.

On to `Cc1c(C2CC2)nc2ccc(Br)cc2c1C(=O)NCCS`, for which the percent labeling under setting [1] is 50.2%; the percent labeling under setting [2] is 10.6%; the percent labeling under setting [3] was 12.1%; the percent labeling under setting [4] came out at 5.7%; the percent labeling under setting [5] came out at 7.7%; the percent labeling under setting [6] is 11.5%. Moreover, the percent labeling by setting is: under setting [7], 19.1%; under setting [8], 28.4%; under setting [9], 4.7%; under setting [10], 7.1%; under setting [11], 4.8%; under setting [12], 11.9%.

`O=C(CCS)N1CCOc2c(Cl)cc(Br)cc2C1`: the percent labeling runs as follows: under setting [2], 14.3%; under setting [3], 20.9%; under setting [4], 12.3%; under setting [5], 13.2%; under setting [6], 12.6%; under setting [7], 40.2%. The percent labeling amounted to 15.7% under setting [9], 15.4% under setting [10], 11% under setting [11] and 27.4% under setting [12].

Turning to `CCN1CCC(N(C)C(=O)CCC(=O)NCCS)CC1`, the percent labeling is 25.6% under setting [1]; 10.2% under setting [2]; 29.2% under setting [3]; 29.3% under setting [4]; 41.6% under setting [5]; 34.6% under setting [6]. Also, the percent labeling by setting is: under setting [7], 11%; under setting [8], 35%; under setting [9], 26.4%; under setting [10], 29.6%; under setting [11], 30%; under setting [12], 37.3%.

With `O=C(CCS)NCC1CCC(c2ccccc2)CC1` (stereo unspecified), the percent labeling amounted to 12.4% under setting [2]; 18.6% under setting [3]; 17.3% under setting [4]; 15.9% under setting [5]; 20.4% under setting [6]; 31.2% under setting [7]. Further, the percent labeling worked out at 10.5% under setting [9], 17.8% under setting [10], 14.4% under setting [11] and 31.8% under setting [12].

Consider `CC(C)c1nc(Cn2cc(C(=O)NCCS)ccc2=O)cs1`, for which the percent labeling runs as follows: under setting [1], 41%; under setting [2], 20%; under setting [3], 32%; under setting [4], 25.6%; under setting [5], 24.4%; under setting [6], 29.8%. The percent labeling under setting [7] is 41.8%; the percent labeling under setting [8] stood at 41.1%; the percent labeling under setting [9] was determined as 17.2%; the percent labeling under setting [10] worked out at 22.2%; the percent labeling under setting [11] was found to be 22.2%; the percent labeling under setting [12] worked out at 44.7%.
